This is an account of results in patent US9045526B2 (THE REGENTS OF THE UNIVERSITY OF MICHIGAN, priority 2011, dated 2015).

Numbered stars: 1 amine (or outer) side, 2 acyl side, 3 side chain; on linkers, the order of the positions; unused ones are H or OH. Bridge positions count the residues as written; N and C are the ends. Square brackets hold non-standard residues; d marks the D form. Peptide text beside a SMILES is read from it. * marks the point of attachment. βGlc = OC[C@H]1O[C@@H](*)[C@H](O)[C@@H](O)[C@@H]1O; Dmt = Cc1cc(O)cc(C)c1C[C@H](N)C(=O)O; dPen = CC(C)(S)[C@@H](N)C(=O)O; Aic = NC1(C(=O)O)Cc2ccccc2C1; CH2CH2 = C(C[*:2])[*:1]

Usually EC50 stands for the midpoint of the concentration-response curve. A lower EC50 goes with greater potency.

Assay [1] concerns the target T1, DOR (Rattus norvegicus, UniProt P33533). Put plainly: DOR | % max. Set-up: expressed in transfected cells; host or cells: C6 rat glioma cells (C6-DOR), stably transfected. The note with it: 10 µM. An excerpt: (§1) Table printed on a drawing sheet, FIGURE 5
Head of the field: DOR | % max.

In a further assay the target is MOR (Rattus norvegicus, UniProt P33535). Kind of assay: MOR | EC50, nM. Set-up: expressed in transfected cells; host or cells: C6 rat glioma cells (C6-MOR), stably transfected.
MOR, sequence (P33535 whole entry, looked up): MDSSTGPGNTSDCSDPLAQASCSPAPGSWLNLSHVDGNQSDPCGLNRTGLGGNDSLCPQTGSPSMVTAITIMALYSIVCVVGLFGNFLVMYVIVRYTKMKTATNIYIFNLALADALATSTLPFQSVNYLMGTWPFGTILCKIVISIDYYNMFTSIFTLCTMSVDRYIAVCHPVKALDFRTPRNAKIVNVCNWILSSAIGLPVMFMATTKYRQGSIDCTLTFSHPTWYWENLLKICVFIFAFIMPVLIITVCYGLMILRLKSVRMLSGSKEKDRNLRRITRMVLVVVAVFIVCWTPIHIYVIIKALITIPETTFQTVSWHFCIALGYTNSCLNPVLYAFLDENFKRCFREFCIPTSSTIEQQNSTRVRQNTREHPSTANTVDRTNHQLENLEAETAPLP
Excerpt: as §1

Assay [2] has as its target T1, DOR. Kind of assay: DOR | EC50. More on the design: expressed in transfected cells; host or cells: C6 rat glioma cells (C6-DOR), stably transfected.
Excerpt: as §1
Head of the field: DOR | EC50

In assay [3] the target is T2, delta-opioid receptor (DOR) (Rattus norvegicus, UniProt P33533).
T2 construct: expressed in transfected cells; host or cells: C6 rat glioma cells (C6-DOR), stably transfected
T2 sequence (P33533 whole entry): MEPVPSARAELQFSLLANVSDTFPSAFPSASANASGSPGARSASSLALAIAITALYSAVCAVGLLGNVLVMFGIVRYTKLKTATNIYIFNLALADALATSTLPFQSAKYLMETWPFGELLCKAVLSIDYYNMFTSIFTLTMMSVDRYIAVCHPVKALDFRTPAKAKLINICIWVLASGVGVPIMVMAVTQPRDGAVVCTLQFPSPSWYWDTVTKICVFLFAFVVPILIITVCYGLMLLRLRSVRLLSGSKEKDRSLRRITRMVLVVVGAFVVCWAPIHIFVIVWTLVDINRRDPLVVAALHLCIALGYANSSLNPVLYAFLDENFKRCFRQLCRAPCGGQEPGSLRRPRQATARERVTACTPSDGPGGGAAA
The note with it: JOM-6 data taken from McFadyen et al. 2000; read-out: binding affinity at DOR; cited from earlier work.

Another assay addresses T3, mu-opioid receptor (MOR) (Rattus norvegicus, UniProt P33535).
T3 construct: expressed in transfected cells; host or cells: C6 rat glioma cells (C6-MOR), stably transfected
The note with it: JOM-6 data taken from McFadyen et al. 2000; read-out: binding affinity at MOR; cited from earlier work.

T1 sequence (P33533 whole entry, looked up): as the sequence (P33533 whole entry) above
T3 sequence (P33535 whole entry): as the sequence (P33535 whole entry, looked up) above

As for `Cc1cc(O)cc(C)c1C[C@H](N)C(=O)N[C@@H]1CSCCSC(C)(C)[C@H](C(=O)N[C@@H](CO)C(N)=O)NC(=O)C2(Cc3ccccc3C2)NC1=O` [VRP-19] (H-[Dmt][dC][Aic][dPen]S-NH2; linker 2-4 via CH2CH2), the “DOR | % max.” value on DOR [1] was 7.53 ± 1.2 % max. `Cc1cc(O)cc(C)c1C[C@H](N)C(=O)N[C@@H]1CSCCSC(C)(C)[C@H](C(=O)N[C@@H](CCCNC(=N)N)C(N)=O)NC(=O)C2(Cc3ccccc3C2)NC1=O` [VRP-24] (H-[Dmt][dC][Aic][dPen]R-NH2; linker 2-4 via CH2CH2): the EC50 was found to be 19.6 ± 6 nM on MOR and 210 ± 150 nM on DOR [2]. For the same compound, on DOR [1], the “DOR | % max.” value came out at 9.3 ± 6.2 % max. `Cc1cc(O)cc(C)c1C[C@H](N)C(=O)N[C@@H]1CSCCSC(C)(C)[C@H](C(=O)N[C@@H](CO[C@@H]2O[C@H](CO)[C@@H](O)[C@H](O)[C@H]2O)C(N)=O)NC(=O)C2(Cc3ccccc3C2)NC1=O` [VRP-26] (H-[Dmt][dC][Aic][dPen]S(βGlc)-NH2; linker 2-4 via CH2CH2; N-terminus assumed) registered an EC50 on MOR of 15.3 ± 4.5 nM. “Tyr-(S—CH2-CH2-S)-D-Cys-Phe-D-Pen-NH2 [JOM-6]”: the values for the Ki (in assay [3]; on mu-opioid receptor (MOR)) were 25 nM and 0.3 nM, respectively.
